{
  "source": "PubChem BioAssay AID504937",
  "about": "(National Center for Advancing Translational Sciences (NCATS), 2011)",
  "note": "Out of some 340,000 compounds screened, about 20 (0.006%) were called active. Inconclusive results, whose numbers are uncertain, are shown with a selection of clear calls. Calls come from the whole dose curve; as a rule, active = well fitted inhibition curve with a large enough effect; inconclusive = small, poorly fitted or top-dose-only effect; inactive = no such curve, though single readings can be large or run the other way. Potencies of inconclusive entries are doubtful fits and often do not repeat. Potency is the fitted concentration of half-maximal effect; tags give direction and shape of the fitted curve.",
  "data": [
    {"molecular_target": "Sphingomyelin phosphodiesterase (Homo sapiens) (UniProt P17405)", "sequence (P17405 whole entry, looked up)": "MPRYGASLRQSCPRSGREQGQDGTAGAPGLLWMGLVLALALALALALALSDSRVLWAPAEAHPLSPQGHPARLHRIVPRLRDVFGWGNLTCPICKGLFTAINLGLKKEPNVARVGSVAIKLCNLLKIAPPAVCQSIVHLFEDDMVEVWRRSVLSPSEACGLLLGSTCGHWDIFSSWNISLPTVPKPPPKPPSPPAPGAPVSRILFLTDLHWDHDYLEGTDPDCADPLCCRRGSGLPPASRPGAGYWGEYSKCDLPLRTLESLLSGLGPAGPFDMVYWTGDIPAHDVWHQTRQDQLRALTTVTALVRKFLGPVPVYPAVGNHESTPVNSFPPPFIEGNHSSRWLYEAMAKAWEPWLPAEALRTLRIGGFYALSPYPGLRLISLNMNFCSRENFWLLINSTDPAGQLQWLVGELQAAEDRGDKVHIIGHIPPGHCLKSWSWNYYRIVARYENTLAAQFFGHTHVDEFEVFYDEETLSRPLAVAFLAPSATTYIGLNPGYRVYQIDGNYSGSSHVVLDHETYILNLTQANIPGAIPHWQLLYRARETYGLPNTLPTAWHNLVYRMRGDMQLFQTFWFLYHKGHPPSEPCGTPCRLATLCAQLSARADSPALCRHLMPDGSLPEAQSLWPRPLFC", "experiment": "Inhibitors of Secretory Acid Sphingomyelinase (S-ASM): qHTS", "details": "placental ASM, HMU-PC fluorogenic substrate (series up to 57.5 µM), 60 min", "procedure,_shortened": "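Fluorescence read-out (Ex 386 nm, Em 447 nm) after stopping the reaction at pH 10. Enzyme: ASM from human placenta; substrate HMU-PC0, 9 uM final; 60 min, 37 °C. Compound preincubation 10 min, ambient temperature.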", "values": [
      {"smiles": "O=C(N[C@@H](Cc1ccccc1)C(=O)N1CCC2(CC1)NCCc1[nH]cnc12)c1cccc(Br)c1", "Potency": "inactive"},
      {"smiles": "CCc1ccc(N(CC)C(=O)c2ccc3c(Cl)c4c(nc3c2)CCC4)cc1", "Potency": "inconclusive: 224 µM [inhibitor, partial curve, poor fit]"},
      {"smiles": "CCOC(=O)Cn1c(=O)n(Cc2ccco2)c(=O)c2ccc(C(=O)NC3CCCC3)cc21", "Potency": "inactive"},
      {"smiles": "CCN1C(=O)[C@H]2[C@@H](c3ccc(-c4ccc(Cl)c(Cl)c4)cc3)N[C@@](C)(C(=O)OC)[C@H]2C1=O", "Potency": "inconclusive: 112 µM [inhibitor, partial curve, poor fit]"},
      {"smiles": "Cc1ccc(C)c(S(=O)(=O)N2CCN(c3nc(CN4CCOCC4)nc4sc(C)c(C)c34)CC2)c1", "Potency": "inactive"},
      {"smiles": "Cc1cc(Br)ccc1NC(=O)c1sc2ncn(CC(=O)N3CCN(c4ccccn4)CC3)c(=O)c2c1C", "Potency": "inconclusive: 200 µM [inhibitor, partial curve, poor fit]"},
      {"smiles": "COc1cc(/C=C2\\SC(=S)N(NC(=O)c3ccccc3OC)C2=O)ccc1O", "Potency": "inconclusive: 63.1 µM [inhibitor, partial curve, poor fit]"},
      {"smiles": "CCCCCc1ccc(OCCCC[n+]2cccc(C)c2)c(CCCCC)c1", "Potency": "inconclusive: 398 µM [inhibitor, partial curve, poor fit]"},
      {"smiles": "CC(C)(C)c1nc(NCCN2CCOCC2)c2nnn(Cc3ccccc3Cl)c2n1", "Potency": "inconclusive: 398 µM [inhibitor, partial curve, poor fit]"},
      {"smiles": "O=C1/C(=C\\c2ccc(Cl)c(Cl)c2)CN(C(=O)CCN2CCOCC2)C/C1=C/c1ccc(Cl)c(Cl)c1", "Potency": "inconclusive: 63.1 µM [inhibitor, single point]"},
      {"smiles": "CC(C(=O)NC1C=CS(=O)(=O)C1)N1C(=O)/C(=C/c2ccc(Cl)cc2)SC1=S", "note": "(centres undefined)", "Potency": "inconclusive: 100 µM [inhibitor, partial curve, poor fit]"},
      {"smiles": "COC(=O)[C@@]12CCCCN1[C@H](c1ccc(-c3ccc(OC)cc3)c(OC)c1)[C@@H]1C(=O)N(C)C(=O)[C@@H]12", "Potency": "inconclusive: 126 µM [inhibitor, partial curve]"},
      {"smiles": "CC(=O)Nc1ccc(-c2cc(-c3ccc(NC(C)=O)cc3)nc(-c3ccccc3)n2)cc1", "Potency": "inactive"},
      {"smiles": "CCOc1ccc(C2C(C(=O)Nc3ccccc3)=C(C)N=c3s/c(=C/c4cccc(OCC(=O)O)c4)c(=O)n32)cc1", "note": "(centres undefined)", "Potency": "inconclusive: 56.2 µM [inhibitor, partial curve, poor fit]"},
      {"smiles": "CC1=Nc2ccccc2/C1=C\\c1nc(-c2ccc(F)cc2)oc1O", "Potency": "inconclusive: 89.1 µM [inhibitor, partial curve]"},
      {"smiles": "NC(=O)c1ccc[n+]([C@H]2O[C@@H](COP(=O)([O-])OP(=O)(O)OC[C@H]3O[C@@H](n4cnc5c(N)ncnc54)[C@H](O)[C@@H]3O)[C@H](O)[C@@H]2O)c1", "Potency": "inconclusive: 79.4 µM [inhibitor, partial curve, poor fit]"},
      {"smiles": "CCOC(=O)c1c(NC(=O)CSc2cccc[n+]2[O-])sc(C(=O)Nc2ccccc2)c1C", "Potency": "inconclusive: 398 µM [inhibitor, partial curve, poor fit]"},
      {"smiles": "CCn1c(SCC(=O)Nc2nc(-c3ccccc3)cs2)nnc1-c1ccccc1O", "Potency": "inconclusive: 224 µM [inhibitor, partial curve, poor fit]"},
      {"smiles": "O=C(Nc1ccc(N2CCN(C(=O)c3ccco3)CC2)cc1)c1ccc(Br)cc1", "Potency": "inactive"},
      {"smiles": "O=C(O)/C=C/c1cn(Cc2ccccc2)nc1-c1ccc(Cl)cc1", "Potency": "inactive"},
      {"smiles": "CC(C)CNC(=O)C1Nc2ccc(OC(F)(F)F)cc2C2C=CCC12", "note": "(centres undefined)", "Potency": "inactive"},
      {"smiles": "CN(C)c1nc(OCCOC(=O)Nc2ccc(Cl)cc2Cl)nc(N(C)C)n1", "Potency": "inconclusive: 501 µM [inhibitor, partial curve, poor fit]"},
      {"smiles": "CC1(C)Cc2c(sc3nc(-c4ccccc4)n(N)c(=O)c23)CO1", "Potency": "inactive"},
      {"smiles": "O=[N+]([O-])c1cccc(-c2csc(Nc3ccccc3)n2)c1", "Potency": "inconclusive: 178 µM [inhibitor, partial curve, poor fit]"},
      {"smiles": "Cc1cccc(C)c1NC(=O)COC(=O)c1cccc2c1C(=O)c1ccccc1C2=O", "Potency": "inconclusive: 501 µM [inhibitor, partial curve, poor fit]"},
      {"smiles": "Cc1[nH]c2ccccc2c1C(=O)C(=O)N1CCN(c2cccc(Cl)c2)CC1", "Potency": "inconclusive: 100 µM [inhibitor, single point]"},
      {"smiles": "COc1ccc(-c2cn[nH]c2-c2ccc(OCc3ccccc3)cc2O)cc1", "Potency": "inconclusive: 112 µM [inhibitor, partial curve, poor fit]"},
      {"smiles": "CCCCN1C(=O)c2ccc(C(=O)Nc3ccc(C)c(S(=O)(=O)N(C)C)c3)cc2C1=O", "Potency": "inconclusive: 31.6 µM [inhibitor, partial curve]"},
      {"smiles": "CCCOc1cc(N(CC)CC)ccc1/C=C(/C#N)c1nc2ccc(C)cc2[nH]1", "Potency": "inconclusive: 126 µM [inhibitor, partial curve, poor fit]"},
      {"smiles": "COc1ccccc1N1CCN(C(=O)c2sc3nc(-c4ccccc4)cn3c2C)CC1", "Potency": "inconclusive: 63.1 µM [inhibitor, partial curve, poor fit]"},
      {"smiles": "COc1ccc(NC(=O)Nc2ccc3c(c2)N(C)C(=O)CS3)cc1Cl", "Potency": "inconclusive: 112 µM [inhibitor, partial curve, poor fit]"},
      {"smiles": "NC(c1ccccc1)c1cccnc1", "note": "(centres undefined)", "Potency": "inactive"},
      {"smiles": "Cc1ccc(-c2cc(C(=O)OCC(=O)Nc3ncc(C(F)(F)F)cc3Cl)c3ccccc3n2)cc1", "Potency": "inactive"},
      {"smiles": "Cc1cccc(Nc2nc(-c3ccc(O)cc3O)cs2)n1", "Potency": "inconclusive: 398 µM [inhibitor, partial curve, poor fit]"},
      {"smiles": "COc1ccc(CNC(=O)C[C@H]2C[C@H](C(=O)N(C(C)C)C(C)C)[C@@]3(C)c4[nH]c5cc(-c6ccco6)ccc5c4CCN3C2=O)cc1OC", "Potency": "inconclusive: 70.8 µM [inhibitor, partial curve, poor fit]"},
      {"smiles": "Cc1ccc(NS(=O)(=O)c2cc(C(=O)Nc3cccc([N+](=O)[O-])c3)ccc2C)cc1", "Potency": "inconclusive: 89.1 µM [inhibitor, partial curve]"},
      {"smiles": "O=C(c1ccccn1)N1CCN(S(=O)(=O)c2ccc3ccccc3c2)CC1", "Potency": "inactive"},
      {"smiles": "COc1cccc(NCc2cc(=O)oc3cc(C)c(C(C)C)cc23)c1", "Potency": "inconclusive: 282 µM [inhibitor, partial curve, poor fit]"},
      {"smiles": "Cc1ccc(C)c2nc3sc(C(=O)N4CCOCC4)c(N)c3cc12", "Potency": "inactive"},
      {"smiles": "COCc1c(C(=O)N2CCN(S(=O)(=O)c3ccccc3Cl)CC2)oc2ccccc12", "Potency": "inactive"},
      {"smiles": "COc1cc(C(=O)Nc2scc(-c3ccc(C)cc3)c2C(=O)O)cc(OC)c1OC", "Potency": "inconclusive: 10 µM [inhibitor, partial curve, poor fit]"},
      {"smiles": "Cc1[nH]c2ccccc2c1C(=O)CN1C(=O)NC2(CC(C)CC(C)(C)C2)C1=O", "note": "(centres undefined)", "Potency": "inconclusive: 316 µM [inhibitor, partial curve, poor fit]"},
      {"smiles": "COc1ccc(Nc2nc(-c3cccc(OC)c3O)nc3ccccc23)cc1", "Potency": "inconclusive: 89.1 µM [inhibitor, partial curve, poor fit]"},
      {"smiles": "COc1ccc(N2C(=O)C(Cl)=C(N3CCCC(C)C3)C2=O)cc1", "note": "(centres undefined)", "Potency": "inconclusive: 282 µM [inhibitor, partial curve, poor fit]"},
      {"smiles": "Cc1noc(C)c1CSCC(=O)N1CCN(c2ccc([N+](=O)[O-])cc2)CC1", "Potency": "inactive"},
      {"smiles": "Cc1nc2ncccn2c1-c1csc(Nc2ccc(N(C)C)cc2)n1", "Potency": "inactive"},
      {"smiles": "Oc1ccc(Br)cc1/C=N/n1cnc2ccccc21", "Potency": "inconclusive: 20 µM [inhibitor, partial curve, poor fit]"},
      {"smiles": "CCOc1ccccc1-c1nn2c(Cc3ccccc3)nnc2s1", "Potency": "inconclusive: 112 µM [inhibitor, partial curve, poor fit]"},
      {"smiles": "CCC1=NN(C(=O)c2cccc(Br)c2)C(O)(c2ccc(Br)cc2)C1", "note": "(centres undefined)", "Potency": "inconclusive: 89.1 µM [inhibitor, single point]"},
      {"smiles": "CN1C=CC=C/C1=C1\\SC(=S)N(C2CCCCC2)C1=O", "Potency": "inconclusive: 316 µM [inhibitor, partial curve, poor fit]"},
      {"smiles": "CC(C)c1ccc(NC(=O)c2ccc3c(c2)CCN3S(C)(=O)=O)cc1", "Potency": "inconclusive: 100 µM [inhibitor, partial curve, poor fit]"},
      {"smiles": "O=C(O)COc1ccccc1/C=C1\\SC(=S)N(/N=C/c2ccccc2O)C1=O", "Potency": "inconclusive: 100 µM [inhibitor, partial curve, poor fit]"},
      {"smiles": "COC(=O)CSc1nc2cc(C)ccc2cc1C#N", "Potency": "inactive"},
      {"smiles": "O=C(Nc1cccc(Cl)c1)c1ccc(F)c(S(=O)(=O)NCc2ccc3c(c2)OCO3)c1", "Potency": "inconclusive: 112 µM [inhibitor, partial curve, poor fit]"},
      {"smiles": "COc1ccc(C(=O)c2sc(Nc3ccccc3)c(C(=O)Nc3ccc(OC)c(OC)c3)c2N)cc1", "Potency": "inconclusive: 79.4 µM [inhibitor, partial curve, poor fit]"},
      {"smiles": "CC(C)=CCc1c2c(c3occ(-c4ccc(O)cc4)c(=O)c3c1O)C=CC(C)(C)O2", "Potency": "inconclusive: 70.8 µM [inhibitor, partial curve, poor fit]"},
      {"smiles": "CSc1nc2[nH]c(=O)n(O)c(=O)c2n1Cc1ccccc1", "Potency": "inactive"},
      {"smiles": "Cc1cc(/C=C2\\SC(=S)N(C)C2=O)c(C)n1-c1ccccc1O", "Potency": "inconclusive: 282 µM [inhibitor, partial curve, poor fit]"},
      {"smiles": "CC(C)N(C(=O)[C@H]1C[C@H](CC(=O)NCc2ccco2)C(=O)N2CCc3c([nH]c4cc(-c5ccco5)ccc34)[C@]12C)C(C)C", "Potency": "inconclusive: 126 µM [inhibitor, partial curve]"}
    ]}
  ]
}
